Assay results: PubChem BioAssay AID1768 (National Center for Advancing Translational Sciences (NCATS), 2009)
In all, about 270,000 compounds went through this assay and about 620 (0.23%) were called active. Inconclusive means that the source gave no clear call. Such entries were picked first, then a sample of the others. Calls come from the whole dose curve; as a rule, active = well fitted inhibition curve with a large enough effect in the polarisation, with a control signal flat (not every such curve was filed as active); inconclusive = small, poorly fitted or top-dose-only effect, or effect the other way, or a change in a side signal; inactive = no such curve, though single readings can be large or run the other way; the % refers to the polarisation. A potency beside an inconclusive call is a rough fit, not a confirmed value. A note “side channel” means that the fit belongs to a control or component signal, not to the main read-out.

These compounds were tested against Menin (Homo sapiens) (UniProt O00255) (assay: qHTS Assay for Inhibitors Targeting the Menin-MLL Interaction in MLL Related Leukemias: Competition With Texas Red Labeled MLL-derived Mutant Peptide). Conditions: fluorescence polarization; FP activity change, negative = inhibition: at 61.6 µM (top of the series).
UniProt O00255, sequence (O00255 whole entry, looked up): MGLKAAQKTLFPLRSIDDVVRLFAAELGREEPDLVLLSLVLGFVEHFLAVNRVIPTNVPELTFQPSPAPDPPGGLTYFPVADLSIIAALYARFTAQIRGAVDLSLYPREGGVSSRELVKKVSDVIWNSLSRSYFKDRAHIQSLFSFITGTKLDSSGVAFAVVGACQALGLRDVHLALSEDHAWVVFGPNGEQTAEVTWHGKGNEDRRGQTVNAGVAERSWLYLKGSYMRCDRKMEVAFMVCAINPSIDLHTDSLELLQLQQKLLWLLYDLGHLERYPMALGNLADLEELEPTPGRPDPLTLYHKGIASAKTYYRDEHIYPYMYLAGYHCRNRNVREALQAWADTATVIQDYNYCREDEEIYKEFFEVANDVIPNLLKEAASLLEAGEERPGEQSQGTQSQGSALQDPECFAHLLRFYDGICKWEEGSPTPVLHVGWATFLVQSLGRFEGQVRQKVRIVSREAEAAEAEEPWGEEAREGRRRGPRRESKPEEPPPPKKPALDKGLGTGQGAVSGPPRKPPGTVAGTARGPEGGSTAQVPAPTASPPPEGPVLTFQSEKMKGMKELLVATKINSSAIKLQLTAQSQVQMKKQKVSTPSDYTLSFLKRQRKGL
Potency is the fitted concentration of half-maximal effect; tags give direction and shape of the fitted curve or compound fluorescence and quenching.
Throughout, for FP activity change, negative = inhibition: % of control where 0% means no effect.

Potency, inconclusive:
O=C1c2ccccc2C(=O)C2OC12 (configuration not stated) 28.2 µM [quencher, side channel, partial curve]
CS(=O)(=O)Nc1ccc(-c2cn3cccnc3n2)cc1 39.8 µM [inhibitor, partial curve, poor fit]
O=C(Nc1cccc(-c2cc3ccccc3oc2=O)c1)c1ccc(Br)o1 39.8 µM [inhibitor, single point]
O=C(O)c1ccc(NC(=O)c2cn(-c3ccccc3)nc2-c2cccc(Cl)c2)cc1 11.2 µM [quencher, partial curve]
Cc1cc(C)c(C#N)c(SCCS(=O)(=O)Cc2ccc(Cl)cc2)n1 11.2 µM [fluorescent, side channel, partial curve]
Cc1nn(C)c(C)c1S(=O)(=O)N1CCCC(C(=O)N2CCN(c3ccc(Cl)cc3)CC2)C1 (configuration not stated) 7.08 µM [inhibitor, partial curve, poor fit]
CCC(C)NC(=O)CCn1c(=O)c2cccn2c2ccc(F)cc21 (configuration not stated) 3.98 µM [inhibitor, full curve]
O=C1/C(=C\c2ccco2)CCC/C1=C\c1ccco1 3.98 µM [fluorescent, side channel, full curve]
O=C(Nc1cc([N+](=O)[O-])ccc1Cl)C(Sc1ccccc1)c1ccccc1 (configuration not stated) 11.2 µM [quencher, side channel, partial curve]
CCCCNS(=O)(=O)c1ccc2nc(-c3cccnc3)cc(C(=O)NCC(OC)OC)c2c1 5.62 µM [inhibitor, full curve]
C[C@@H]1C(c2ccccc2)=NN(c2ccc(Br)cc2)[C@H]1C(=O)N1CCOC1=O 3.98 µM [quencher, full curve]
C=CCn1c(SCC(=O)Nc2ccc3c(c2)OCO3)nnc1-c1cc(Br)ccc1O 39.8 µM [quencher, side channel, single point]
O=C(CCl)Nc1nc(-c2ccco2)c(-c2ccco2)s1 31.6 µM [quencher, side channel, single point]
CC(C)OC(=O)Cn1nc(C(c2ccccc2)c2ccccc2)oc1=O 10 µM [inhibitor, partial curve]
Cc1ccc(C)c(-n2cc(CNCCc3cnccn3)c(-c3ccccc3)n2)c1 8.91 µM [fluorescent, side channel, partial curve]
N#Cc1cccc(-c2nc(NCc3cccnc3)c3ccccc3n2)c1 35.5 µM [inhibitor, single point]
CCOC(=O)c1c(C)[nH]c(C(=O)N/N=C/c2cc([N+](=O)[O-])ccc2O)c1C 2 µM [quencher, side channel, full curve]
COc1ccc(NC(=O)c2cc3c(CO)cnc(C)c3oc2=Nc2cccc(C)c2)c(OC)c1 4.47 µM [inhibitor, full curve, poor fit]
CCCCn1c(NS(=O)(=O)c2ccc(C)cc2)c(S(=O)(=O)c2ccccc2)c2nc3ccccc3nc21 25.1 µM [quencher, side channel, single point]
O=S(=O)(NCc1ccccc1)c1ccc(NC(=S)NCc2ccco2)cc1 22.4 µM [quencher, side channel, partial curve]
CCOC(=O)CC(=O)CSc1nc(C)cc(-c2cccnc2)c1C#N 3.16 µM [inhibitor, partial curve]
O=C(O)c1cccc(NC2=C(Cl)C(=O)c3ccccc3C2=O)c1 22.4 µM [quencher, side channel, partial curve]
Nc1ccc(N2CCCCC2)cc1N1CCCCC1 25.1 µM [fluorescent, side channel, single point]
Oc1ccc(/C=N/Nc2cccc(Cl)n2)c(O)c1 28.2 µM [quencher, side channel, partial curve]
Cc1ccc(C2(c3noc(CN(C)Cc4cccnc4)n3)CCCC2)cc1 2.51 µM [fluorescent, side channel, full curve, poor fit]
O=C(N/N=C1/CCSC1)c1cc(Br)ccc1O 39.8 µM [quencher, side channel, single point]
Fc1ccc(-c2csc(=S)[nH]2)cc1 17.8 µM [quencher, side channel, partial curve]
Cc1ccccc1C(=O)Nc1ccccc1-c1nnn(CC(=O)Nc2ccc3c(c2)OCCO3)n1 39.8 µM [inhibitor, single point]
O=C(N/N=C/c1ccccc1O)c1cccc2ccccc12 39.8 µM [quencher, side channel, single point]
COc1ccc(C(=O)Nc2cccc(C(=O)NCc3ccco3)c2)cc1 0.631 µM [quencher, side channel, full curve, poor fit]
O=C(NN1C(=O)/C(=C/c2cccc(O)c2)SC1=S)c1ccccc1O 20 µM [quencher, side channel, partial curve]
Fc1ccc(Nc2nc(-c3ccoc3)nc3ccccc23)cc1 11.2 µM [quencher, side channel, partial curve]
CC(=O)Nc1cccc(-c2nnc(SCc3ccccc3C#N)n2C)c1 5.01 µM [inhibitor, full curve]

FP activity change, negative = inhibition, inactive:
Cc1ccc(OCCn2cc(C(=S)N3CCCC3)c3ccccc32)cc1C -15.9%
COc1ccc(/C=N/Nc2nncn2N)cc1Br -0.544%
Cc1ccc(NC(=O)NC(=O)N(C(C)C)S(C)(=O)=O)nc1 -19.5%
COc1ccccc1C(=O)NCCNc1nc2cc(C)cc(C)c2cc1C#N 1.1%
